Laboratory results published in PMC6919601, “Identification of Plasmodium dipeptidyl aminopeptidase allosteric inhibitors by high throughput screening” (PLoS ONE, 2019).
The campaign covered roughly 110,000 compounds. About 230 (0.21%) showed an effect of 50% or more. This is one part of the list.

Target: DPAP1 (Plasmodium falciparum, UniProt Q8IIJ9)
Assay: primary screen, percent inhibition; read by cleavage of a fluorogenic dipeptide substrate; higher = more effect of the substance
Design: species or system P. falciparum D10 trophozoite lysates; single well
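Also: 30 min substrate incubation versus DMSO and 10 µM JCP410 controls.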

DPAP1, sequence (Q8IIJ9 whole entry, looked up): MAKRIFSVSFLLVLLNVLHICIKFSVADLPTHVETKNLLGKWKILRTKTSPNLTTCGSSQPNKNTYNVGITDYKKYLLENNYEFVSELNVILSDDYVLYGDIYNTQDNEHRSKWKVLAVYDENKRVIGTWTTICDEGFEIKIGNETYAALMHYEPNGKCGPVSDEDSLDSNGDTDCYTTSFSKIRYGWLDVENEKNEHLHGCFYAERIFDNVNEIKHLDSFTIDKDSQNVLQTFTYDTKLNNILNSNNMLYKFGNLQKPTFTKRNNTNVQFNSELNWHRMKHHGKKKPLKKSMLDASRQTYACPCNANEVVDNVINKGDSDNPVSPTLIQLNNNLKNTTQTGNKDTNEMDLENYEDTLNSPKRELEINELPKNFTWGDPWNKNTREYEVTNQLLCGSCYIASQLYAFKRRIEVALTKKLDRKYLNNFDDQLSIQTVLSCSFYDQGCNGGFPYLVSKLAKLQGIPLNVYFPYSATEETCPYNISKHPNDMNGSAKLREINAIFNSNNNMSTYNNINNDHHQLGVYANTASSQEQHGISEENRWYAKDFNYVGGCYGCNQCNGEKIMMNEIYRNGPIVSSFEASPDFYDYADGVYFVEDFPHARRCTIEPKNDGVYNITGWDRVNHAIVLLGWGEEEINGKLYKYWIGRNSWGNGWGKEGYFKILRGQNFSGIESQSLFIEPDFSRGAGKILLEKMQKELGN

Compound | % Inhibition @ 10 uM [%]
COC(=O)c1sccc1S(=O)(=O)N1CCN(c2ccccn2)CC1 | -6.9
O=C(Nc1ccc2oc(-c3cccc(F)c3)nc2c1)c1ccc(F)cc1 | -2.19
COc1cc(C2(c3ccc(O)c(OC)c3)C(=O)Nc3c(C)cc(Br)cc32)ccc1O | 4.49
CC1CCCC(C)N1C(=O)CCCOc1ccc(Cl)cc1Cl (stereo not shown) | -0.261
CN(CC(=O)Nc1ccccc1)S(=O)(=O)c1ccccc1 | 0.755
CCc1ccccc1NC(=O)c1ccc(CN2CCOCC2)cc1 | 1.72
Cc1cc(NC(=O)CSc2c3c(nc4ccccc24)CCC3)no1 | -11
COc1cc(OC)c(OC)cc1CN1CC(C)OC(C)C1 (stereo not shown) | 0.815
COc1ccc(C2Sc3cc(OC)ccc3NC(=O)C2O)cc1 (stereo not shown) | -1.51
CC(=O)Nc1ccc(S(=O)(=O)N2c3ccccc3C(C)=CC2(C)C)cc1 | 2.01
Cc1ccc(CNC(=O)c2ccccc2F)cc1 | 1.38
Cc1ccc2[nH]c(NC(=O)CC34CC5CC(CC(C5)C3)C4)nc2c1 | 5.79
CCOC(=O)N1CCN(C(=O)CN(c2ccccc2Cl)S(=O)(=O)c2ccc(C)cc2)CC1 | 2.79
COc1cc(C(=O)NCc2nc3ccccc3n2Cc2c(F)cccc2Cl)cc(OC)c1OC | -5.67
Cc1cccc(CC(=O)NCCn2c(C)cc3ccccc32)c1 | -10.3
CCOC(=O)c1cnn2c1NC(c1cccc(OC)c1)CC2C(F)(F)F (stereo not shown) | 0.564
Cc1ccn2c(NC(=O)c3ccccc3F)c(-c3ccccc3)nc2c1 | 1.5
Cc1cccc(OCc2nc(-c3ccncc3)no2)c1C | 3.93
Cc1ccc(S(=O)(=O)Nc2ccc(NC(=O)C(C)C)cc2)cc1 | -3.04
Cc1c(CNCCCOC(C)C)c(C(=O)O)c(C)n1Cc1ccc(F)cc1 | -3.67
CCS(=O)(=O)C1=NN2C(=N)/C(=C\c3ccc(OC(C)c4ccccc4)cc3)C(=O)N=C2S1 (stereo not shown) | -1.54
O=c1c(Cc2ccc(F)cc2)c(O)nc2n1CCCS2 | -3.95
CCN1CCN(c2c(C(=O)c3ccc(C)c(C)c3)cnc3cc4c(cc23)OCO4)CC1 | -5.54
CN1C(=O)C(Cc2c[nH]c3ccccc23)NC1=S (stereo not shown) | -0.0369
CCOc1nc(-c2ccccc2)c2cc(C)ccc2n1 | 0.51

Compound | % Inhibition @ 10 uM [%]
COc1cc(/C=C/c2noc(-c3ccccc3O)n2)cc(OC)c1OC | 1.72
CS(=O)(=O)c1ccc2nc(NC(=O)C3CCCCC3)sc2c1 | -1.44
CC1(C)CC(=O)C2=C(C1)OC1=C(C(=O)CC(C)(C)C1)C2c1cccc2ccccc12 | -0.127
COc1cccc(-n2nnc3c(=O)n(Cc4c(F)cccc4Cl)cnc32)c1 | 1.24
COc1ccc(C2(O)CSC3=C(C#N)C(c4cccc(O)c4)CC(=O)N32)cc1OC (stereo not shown) | 3.24
CCCCN(C)Cc1ccc(O)cc1 | -4.75
CN1CCC(N(C)CC2=CC[C@H]3C[C@@H]2C3(C)C)CC1 | 2.1
Cc1ccccc1-c1nc(CS(=O)CC(=O)NCc2ccccc2)c(C)o1 (stereo not shown) | -2.85
O=C(O)c1ccc(-c2nc(-c3ccccc3)c(-c3cccs3)[nH]2)cc1 | -2.87
Cc1ccc(Cn2nnc3c(=O)n(CC(=O)N4CCC(C)CC4)cnc32)cc1 | -3.94
O=[N+]([O-])c1ccc(Oc2c(-c3ccccc3)nc(Cl)nc2-c2ccccc2)cc1 | -3.6
CCOC(=O)c1c(C)[nH]c(C)c1S(=O)(=O)N1CCC(C(=O)NCCc2cccs2)CC1 | 0.706
O=C(O)/C=C\C(=O)NCc1ccco1 | 3.15
CC1=C(c2ccc(C(C)C)cc2)S(=O)(=O)N=C1NCc1cccs1 | 2.27
CCN(Cc1nc(-c2cccc(C)c2)no1)S(=O)(=O)c1ccc(OC)cc1 | -6.43
COC(=O)c1c(NC(=O)c2cc(OC)c(OC)c(OC)c2)sc2c1CCC(C)C2 (stereo not shown) | 4.35
CC(=O)Nc1ccc(S(=O)(=O)n2nc(-c3ccc(C)cc3)nc2N)cc1 | -6.39
CC(=O)CSC(=S)N(C)Cc1cccs1 | -1.86
COc1cc(OC)cc(C2NCCC3(O)CCCCC23)c1 (stereo not shown) | -7.39
O=C(c1ccc(S(=O)(=O)N2CCCCCC2)cc1)N1CCN(c2ccccn2)CC1 | 8.19
Cc1ccc2cnn(CC(=O)NCCc3ccc(Cl)cc3)c2c1 | -1.11
Cc1ccc(N(CC(=O)NCC2CCCO2)S(=O)(=O)c2ccc(Cl)cc2)cc1C (stereo not shown) | -3.33
CCOc1ccc(CNC(=O)c2ccc3c(c2)ncn3C2CCCC2)cc1OC | 2.05
Cc1cc(C)c(C(N)=O)c(Nc2cccc(Cl)c2)n1 | -5.13
Cc1nn(CC(=O)N2CCC(Cc3ccccc3)CC2)c(=O)c2nn(-c3ccccc3)c(C)c12 | 1.11

Compound | % Inhibition @ 10 uM [%]
COc1cc(NC(=O)c2cc3nc(C(F)F)cc(C(F)F)n3n2)c(OC)cc1Cl | -2.98
Cc1ccc(OCCCN2CCCC2)cc1 | 2.6
CC(Nc1nc2c(S(=O)(=O)c3cccc(Cl)c3)nnn2c2ccsc12)c1ccccc1 (stereo not shown) | -2.85
COc1ccccc1Cc1nnc(C(N)=O)o1 | -3.34
O=Cc1ccc(C(=O)O)s1 | -3.53
Cc1cc(C(=O)O)c(C)cc1C(=O)O | -1.86
COc1cc2nc(SCC(=O)NCc3ccccc3Cl)n3nc(C)nc3c2cc1OC | -2.29
COc1ccc2c(CNCCc3ccc(Cl)cc3)c(C(=O)O)n(C)c2c1 | -4.76
CC(=O)Nc1ccc(CN2CCOCC2)cc1 | -6
CC(C)CC(NC(=O)C1CCNCC1)C(=O)N1CCN(S(=O)(=O)c2ccc3ccccc3c2)CC1 (stereo not shown) | -9.37
O=S(=O)(c1ccc2ccccc2c1)N1CCOCC1 | 3.18
Cc1[nH]c2ccccc2c1CN1CCN(Cc2ccccc2)CC1 | 0.708
Cc1cccc(C(=O)Nc2sc3c(c2C(N)=O)CCCCCC3)c1 | 4.12
O=C(Cn1cc(C(=O)C2CC2)c2ccccc21)NCCc1c[nH]c2ccccc12 | 1.72
COC(=O)c1ccc(-c2ccc(C(=O)N[C@@H](Cc3c(F)cccc3F)C(=O)NCC#N)cc2)c(Cl)c1 | -1.5
CNC(=O)/C(C#N)=C/c1c(Oc2ccccc2Cl)nc2c(C)cccn2c1=O | -3.23
Cc1ccc(Cn2c(=O)c3cccnc3n(CC(=O)c3ccc(Br)cc3)c2=O)cc1 | -3.44
Cc1cccc(C)c1NC(=O)c1ccc(Cn2cc(Cl)cn2)o1 | -4.75
Cc1ccc(NC(=O)c2ccc(Cl)cc2Cl)cc1O | -2.65
O=S(=O)(c1ccccc1)c1ccc(N2CCCCCC2)cc1 | -0.712
COc1ccc(/C=C2\Sc3nc(-c4ccccc4)nc(C)c3C2=O)cc1 | -0.994
COc1cccc(OC)c1C(=O)Nc1nc2ccccc2s1 | 0.361
Cc1ccc2nc(N(CCCN(C)C)C(=O)c3cc4ccccc4oc3=O)sc2c1 | -1.87
Clc1ccc(CN2C3=NCCCN3c3ccccc32)c(Cl)c1 | 2.45
CCOC(=O)C1=C(C(F)(F)F)Nc2ncnn2C1c1ccc(OC)cc1 (stereo not shown) | -1.62

Compound | % Inhibition @ 10 uM [%]
COc1ccc(C2NCCc3[nH]cnc32)c(OC)c1 (stereo not shown) | -4.43
CC(C)CCn1c(C(C)O)nc2ccccc21 (stereo not shown) | -3.63
COc1ccc(N2CC(C(=O)Nc3ncccc3C)CC2=O)cc1 (stereo not shown) | 2.42
CCCN1C(=O)/C(=C/c2ccc(C)o2)S/C1=N/c1ccc(OC)cc1 | 6.73
Cc1nc2ccc(S(=O)(=O)NCC(=O)N3CCc4ccccc4C3)cc2s1 | -6.09
CCOc1cccc(C(=O)Nc2nnc(-c3ccc4c(c3)OCO4)s2)c1 | -1.93
CCOC(=O)C1=C(CS(=O)(=O)c2ccc(C)cc2)NC(=O)NC1c1cc(OC)c(O)c(OC)c1 (stereo not shown) | 1.24
CCCCCCN1C(=O)C(O)=C(C(C)=O)C1c1ccc(OC)cc1 (stereo not shown) | -2.39
CC(C)c1ccc(C2c3c(oc4ccccc4c3=O)C(=O)N2Cc2ccc3c(c2)OCO3)cc1 (stereo not shown) | -5
O=c1c2cc(Br)ccc2ncn1Cc1ccccc1Cl | 1.86
COc1ccc(CC(=O)NCC2CCCO2)cc1 (stereo not shown) | -8.88
CC(C)Oc1ccc(CNC(=O)C2CCCN(c3nn4cc(-c5ccc(F)cc5)nc4s3)C2)cc1 (stereo not shown) | 0.95
Cc1cc(C)n(C(=O)COc2ccc(Br)cc2C)n1 | -1.81
O=C(O)c1ccccc1C(=O)Nc1ccc(N2CCN(c3ccccc3)CC2)cc1 | 0.214
O=C(Cc1ccccc1)NCc1nc2ccccc2n1Cc1ccccc1F | -4.86
O=C(Nc1ccc(Nc2ccccc2)cc1)c1ccccc1 | -4.82
O=C1c2cc(Cl)c(Cl)cc2C(=O)N1CNc1ccccc1 | -9.67
CCOC(=O)C1CCN(Cc2ccc(C(F)(F)F)cc2)CC1 | -0.127
O=C(Nc1ccc(NC(=O)c2cccs2)cc1)c1cc2ccccc2o1 | 17.9
O=c1cc(-c2ccc(O)c(O)c2)oc2ccccc12 | -4.65
COc1ccccc1/C=C(\C#N)c1nc(-c2ccc(C)cc2)cs1 | 5.68
Cc1ccc(CNC(=O)Cn2c(=O)n(Cc3ccccc3)c(=O)c3c(C)c(C)sc32)cc1 | 10.4
CCCCCn1c(=O)c(C(=O)Nc2ccc(F)cc2)c(O)c2ccccc21 | -4.76
C=CCc1c(C)nc2nc(SCC(=O)NCCc3ccccc3)nn2c1C | 4.36
OCC1CCCCN1Cc1ccnc2ccccc12 (stereo not shown) | -3.5
